Drawing on PubChem BioAssay AID1240 (Sanford-Burnham Center for Chemical Genomics, 2008), this text covers displacement for 70 compounds.

In all, about 50,000 compounds went through this assay and about 800 (1.6%) showed an effect of 50% or more. This is one part of the list.

For the assay, the target named is Bcl-2-like protein 10 (Homo sapiens) (UniProt Q9HD36). The assay can be described thus: Phenotype converters, Bcl-B/TR3 peptide binding displacement, primary biochemical FP (AID 1240).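 Further: 0% = Bcl-B with tracer peptide and DMSO and 100% = tracer peptide lacking Bcl-B.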 Particulars: GST-Bcl-B / FITC-TR3 peptide fluorescence polarization; stronger effect = higher value; compound at 3.75 mg/L. A general note: In fluorescence polarisation assays a small probe gives low polarisation when free and higher when bound to something large.
UniProt Q9HD36, sequence (Q9HD36 whole entry, looked up): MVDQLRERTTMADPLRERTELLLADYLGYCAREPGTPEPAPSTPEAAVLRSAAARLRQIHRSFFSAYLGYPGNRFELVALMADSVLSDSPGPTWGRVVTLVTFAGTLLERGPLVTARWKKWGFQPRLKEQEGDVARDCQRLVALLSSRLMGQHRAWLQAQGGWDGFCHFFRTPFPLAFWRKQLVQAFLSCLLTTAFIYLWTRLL
For `Cc1ccc(C(=O)Nc2cc(Cl)ccc2C)cc1C`, the displacement was determined as 5.3%. With `CC(C)CN(CC(C)C)C(=O)/C=C/c1ccc(Cl)cc1`, the displacement is 10.4%. As for `COc1ccccc1N1CCN(/N=C/c2ccccc2C)CC1`, the figure is 11.2%; as for `Cc1cccc(/C=N/N2CCN(c3ccccc3)CC2)c1`, 16.7%; as for `O=C(c1ccc([N+](=O)[O-])cc1Cl)N1CCN(c2ccc(F)cc2)CC1`, -5.4%. To `CN1C(=O)NC(=O)/C(=C/c2ccc(-c3ccc([N+](=O)[O-])cc3Cl)o2)C1=O` belongs 93.6%; to `O=C1N/C(=N\N=C\c2ccccc2O)SC1Cc1ccc(Cl)cc1` (stereo not given), 8.7%. As for `CC1CCN(C(=O)CN(c2cccc([N+](=O)[O-])c2)S(=O)(=O)c2ccccc2)CC1`, the figure is 3.3%; as for `COc1ccc(/C=C/C(=O)Nc2ccccc2Cl)cc1OC`, -2.5%; as for `C#Cc1cccc(NS(=O)(=O)c2ccc(NC(C)=O)cc2)c1`, 2.4%.

Consider `CCC(=O)C1=C(N2CCOCC2)CC(C)(C)CC1=O`, for which the displacement is -18.9%. Take `C#CCOc1c(Cl)cc(C2C(C(=O)OC)=C(C)NC3=C2C(=O)c2ccccc23)cc1Cl` (stereo not given): the displacement was found to be 13.1%. As for `NC(=O)SCC(=O)Nc1cccc(F)c1`, the figure is 6.8%. Regarding `O=C(Nc1ccc(F)c(F)c1)c1cnccn1`, the displacement was -3.3%. As for `CCOc1ccc(C=Nc2ccc(I)cc2)cc1`, the figure is -7.2%; as for `COc1ccc(/C=C2\N=C(c3ccccc3F)OC2=O)c(OC)c1`, 72.1%.

`CCOc1ccccc1NC(=O)c1c(NC(=O)c2ccccc2Cl)sc2c1CCCC2`: the displacement was -4.6%. As for `NC(=O)COc1ccc(/C=c2/sc3n(c2=O)CCCN=3)cc1`, the figure is 6.4%; as for `CCC(COC(C)=O)NC1=C(Cl)C(=O)c2ccccc2C1=O` (stereo not given), 9.8%.

Turning to `CC(=O)/C=C/c1oc2ccc([N+](=O)[O-])cc2c1-c1ccc(C)o1`, the displacement is 80.9%. As for `CCOP(=O)(CN(C)S(=O)(=O)c1ccc(C)cc1)OCC`, the figure is -24.9%; as for `CCOC(=O)Nc1ccc2c(c1)N(C(=O)CCN)c1ccccc1S2`, 3.8%. To `C=CCNC(=O)C(=O)NCc1ccccn1` belongs -0.3%; to `COC(=O)C1=C(C)NC(=O)NC1c1cccc(I)c1` (stereo not given), 2.2%; to `O=C(c1nn2c(C(F)(F)F)cc(-c3ccco3)nc2c1Cl)N1CCN(Cc2ccccc2)CC1`, 1.1%.

Regarding `Cc1cc(=O)[nH]c2cc(-c3ccccc3)nn12`, the displacement was -11.5%.

`CCOC(=O)c1c(NC(C)=O)sc2cc(C(C)(C)C)ccc12`: the displacement was -4.1%. As for `COc1ccc(NC(=O)/C(=C\c2ccccc2OC)NC(=O)c2ccccc2OC)cc1`, the figure is 3%. As for `COc1cc(C2SC(NC(C)=O)=NN2C(C)=O)cc(OC)c1OC` (stereo not given), the figure is -9.1%. To `O=C(CSc1nc2ccc(NC(=O)c3ccc(Cl)cc3Cl)cc2s1)Nc1ccccc1` belongs 31%; to `COc1ccc(-c2nc3cc(NC(=O)c4ccc5c(c4)OCCO5)ccc3o2)cc1Br`, 2.7%; to `COc1cc(C(=O)Oc2ccc(/C=N/NC(=O)COc3cccc4ccccc34)cc2)cc(OC)c1OC`, 0.1%. Consider `COc1ccc(N(CC(=O)Nc2cc(OC)ccc2OC)S(=O)(=O)c2ccc(OC)c(OC)c2)cc1`, for which the displacement is 16.8%. As for `CCc1ccccc1N(CC(=O)OC)S(C)(=O)=O`, the figure is 10.2%. To `CN(C)/C=C1/C=C(c2ccccc2)OC1=O` belongs -11.5%. To `O=C(CN1C(=O)/C(=C/c2cccc(Br)c2)SC1=S)Nc1cccnc1` belongs 9.6%.

For the compound `O=C(/C=C/c1ccccc1)Nc1nnc(-c2ccco2)s1`, the displacement amounted to 20.7%.

With `COc1ccc(OC)c(/C=N\NC(=O)c2cnccn2)c1`, the displacement was -1.9%. As for `COc1ccc(C(=O)NCCCN2CCOCC2)cc1Br`, the figure is -1.9%; as for `COc1ccc(C(=O)CSc2nnc(-c3cccc(Br)c3)o2)cc1`, 11.1%. To `CCNC(=S)NNC(=O)CSc1nc2ccccc2n1CC` belongs -27.3%; to `C/C(=N\NC(=O)c1cc(C2CC2)[nH]n1)c1ccc(Cl)cc1`, 6.3%; to `CCOc1cc(/C=C2\C(=O)NN(c3ccccc3)C2=O)cc(Br)c1O`, -0.2%. For `COc1ccc(N=C2CC(C)(C)CC(O)=C2C(C)=O)cc1`, the displacement is -18.1%.

Turning to `CCOC(=O)CN1C(c2ccccc2O)Nc2ccc(Br)cc2C1c1ccccc1` (stereo not given), the displacement was 20.7%. Take `Cc1ccc(C2Nc3ccccc3NC3=C2C(=O)CC(c2ccc4c(c2)OCO4)C3)s1` (stereo not given): the displacement was -5.1%.

With `CCOC(=O)c1c(NC(=O)CCN2C(=O)c3ccccc3C2=O)sc(C(C)=O)c1C`, the displacement is -7.5%.

Regarding `Cc1c(Cl)c([N+](=O)[O-])nn1CC(=O)Nc1ccc(S(N)(=O)=O)cc1`, the displacement was -2.7%. To `O=C(/C=C/c1cccs1)c1ccncc1` belongs -7.9%; to `COc1ccc2ccccc2c1/C=N/NC(=O)c1cccc(Cl)c1`, -7.8%; to `C=CCOc1ccc(/C=C2\C(=O)N(c3ccc(S(N)(=O)=O)cc3)N=C2C)cc1OC`, -1.6%.

For `Cc1ccc(C(=O)Nc2c(C(=O)Nc3cccnc3)cnn2-c2ccccc2)cc1`, the displacement was -3.3%.

On to `COc1cc(OC)cc(C(=O)Nc2ccc(C)c(C)c2)c1`, for which the displacement was determined as 8.7%. To `Cc1cccc(C)c1NC(=O)Nc1c(C)cccc1C` belongs -1.4%; to `Cc1ccc(OCC(=O)N2CCc3ccccc3C2)cc1`, 7.1%. To `C=C(C)CSc1nc(N)c2c3c(sc2n1)COC(C)(CC)C3` (stereo not given) belongs -2.5%.

For the compound `COC(=O)c1ccc(/C=C2\C(=O)NC(=O)N(c3cc(C)cc(C)c3)C2=O)cc1`, the displacement came out at 6.8%. To `O=C(N=Nc1c(O)[nH]c2c(Br)cc(Br)cc12)c1ccccn1` belongs 0.8%; to `O=C(c1cccc([N+](=O)[O-])c1)c1ccc2c(c1)C(=O)N(c1ccccc1C(=O)O)C2=O`, -2.7%. Consider `CSCCC(C(=O)O)N1C(=O)/C(=C/c2cccc(O)c2)SC1=S` (stereo not given), for which the displacement came out at 13%. To `CN(C)c1ccc(/C=N/NC(=O)C(=O)N/N=C/c2ccc(N(C)C)cc2)cc1` belongs 1%; to `CC(=O)Cc1cc(O)c2ccccc2c1OC(=O)c1ccc(Br)cc1`, -2.7%. For `COc1ccc(C(=O)Nc2cc(Cl)ccc2C)cc1OC`, the displacement is -5.3%. For `CCOc1ccc(Br)cc1/C=C1/C(=O)NN(c2ccccc2)C1=O`, the displacement was -6%. Turning to `CC(C)=C1C2C=CC1C1C(=O)N(c3ccccc3[N+](=O)[O-])C(=O)C21` (stereo not given), the displacement came to 15%. `COc1cc(NC(=O)c2sc3ccccc3c2Cl)c(OC)cc1Cl`: the displacement was found to be 12%. As for `CN1C(=O)/C(=C\c2ccc(N(C)C)cc2)SC1=S`, the figure is -32.7%. To `Cc1ccc(N=C2NC(=O)/C(=C\c3cccc(Br)c3)S2)cc1C` belongs 8.8%; to `CCc1ccccc1NC(=O)C1CC2CCC1C2` (stereo not given), -2.1%; to `Cc1ccc(-c2nc(-c3cc4cc([N+](=O)[O-])c(O)cc4oc3=O)cs2)cc1`, -4.8%.
